Results from the supplement of paper PMC3334620.
Whole data set: some 33,000 sequences, median “E-score (-0.5 to 0.5)” near -0.054, cut for the highest 2% near 0.35. The list shows a part of the results.

Biological target: T1, Stb5 (UniProt P38699)
T1 sequence: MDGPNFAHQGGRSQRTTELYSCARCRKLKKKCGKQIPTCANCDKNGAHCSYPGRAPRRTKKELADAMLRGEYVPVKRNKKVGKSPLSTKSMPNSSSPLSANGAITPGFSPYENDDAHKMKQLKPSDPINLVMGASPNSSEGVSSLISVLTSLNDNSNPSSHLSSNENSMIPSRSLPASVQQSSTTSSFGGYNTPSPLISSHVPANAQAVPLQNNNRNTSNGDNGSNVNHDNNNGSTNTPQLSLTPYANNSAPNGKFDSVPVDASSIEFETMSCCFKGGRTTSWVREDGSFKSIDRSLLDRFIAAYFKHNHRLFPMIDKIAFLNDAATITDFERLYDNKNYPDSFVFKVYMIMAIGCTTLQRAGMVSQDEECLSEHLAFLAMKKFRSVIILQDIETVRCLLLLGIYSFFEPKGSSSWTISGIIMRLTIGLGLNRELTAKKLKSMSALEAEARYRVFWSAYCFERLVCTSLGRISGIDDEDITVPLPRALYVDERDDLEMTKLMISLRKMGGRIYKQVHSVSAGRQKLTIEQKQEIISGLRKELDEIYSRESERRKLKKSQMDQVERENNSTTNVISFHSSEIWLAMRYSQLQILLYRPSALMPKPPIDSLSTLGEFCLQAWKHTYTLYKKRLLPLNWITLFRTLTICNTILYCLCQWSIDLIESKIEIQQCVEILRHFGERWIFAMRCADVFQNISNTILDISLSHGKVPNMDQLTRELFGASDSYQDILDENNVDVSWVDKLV
Test: PBM E-score (8-mer binding enrichment) (E-score (-0.5 to 0.5)); higher = stronger / more preferred TF binding; most listed sequences are background and not binding sites
Settings: protein concentration: 200 nM; construct: GST-full length
Outline: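 Detection of bound protein used fluorescent anti-GST, with scans normalised by masliner. The proteins were GST-tagged yeast transcription factors applied at about 100-200 nM to universal all-10-mer Agilent arrays made double-stranded by primer extension. Each ungapped eight-base word, pooled with its reverse complement, was scored with an E-score from the Universal PBM Analysis Suite.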

Sequence	PBM E-score
ACCGAGCC	0.0685
CCAATCGG	0.212
TACTAGGA	-0.0753
AGGACACT	-0.138
GACGAGAA	-0.22
GGCGCACA	0.034
AGAAAAGC	-0.0667
CGTAAAGC	0.0857
TAATATCA	0.172
ATCTTACA	-0.033
TTGGGAAA	-0.293
CTCATCCA	-0.265
CCCGGTAG	0.211
AGATGCGC	0.0212
ACAGTAGC	-0.159
GATTGCAA	-0.214
ACTATAAC	0.135
CGAACTAC	0.00666
AGAGGTCC	-0.0788
CTGAGAGC	-0.047
ACGTAGAC	-0.251
GCCGACGA	0.308
CGATTCGC	0.0218
CCGCATAA	0.251
CCAAGAAG	-0.144

Sequence	PBM E-score
CTTTCGTC	-0.0669
AAATCTTA	-0.119
CTGACATA	-0.0884
ACTATTCG	-0.238
CGGCCGTC	0.11
CATCCGAA	0.168
AGGCGGCG	0.335
CACTGCCC	-0.0546
AAAGCGGA	0.352
CATGGAGC	-0.0701
GCCGTATA	0.173
GCACCTCC	-0.0633
CTTGGAGC	-0.224
CGTTAAAA	0.19
CGGGTAAG	-0.0392
ACTATCCC	0.0306
GGAACACA	-0.0998
ACCCCCGG	0.336
AAGAGCGC	0.141
AAAGGTCA	-0.202
ATGTTGCA	-0.271
GTGCCACA	-0.302
TACCATAA	-0.0349
AGCGACGA	-0.0697
GGGACGAC	-0.115

Sequence	PBM E-score
TACAATAA	-0.11
GCCCAATA	-0.139
ATTGTCAC	0.0341
AGAGACCG	0.278
CCTAACCA	-0.181
TCACCAGA	0.0164
GGGTAGCA	-0.072
CCCCGCTA	0.399
GGTCGTTA	0.0818
ACACCACC	0.0187
GGCTTCTA	-0.04
ATTCTGTG	-0.0797
GCCATTCC	-0.0807
TAACATAA	0.0517
GACCGCTA	0.359
GAATGCTA	-0.0445
CCTTCATC	-0.0101
GGTATAAA	0.305
AGGGAAAT	-0.0743
CGGCAACC	0.066
CAGTCTAC	-0.135
ACTACTTC	0.0827
TGCTCTAA	0.011
CGCTATGC	0.143
GATATATA	0.225

Sequence	PBM E-score
AGGCGCAG	-0.219
CAAAACCG	0.0999
GATCGAGA	-0.15
AAGCGAGG	0.0396
ATGCAGCC	-0.0789
AGACAGAG	-0.213
CGGAATGA	0.129
CGACACAC	0.149
ATTGCGCA	-0.0464
ATTGGTTC	-0.144
ATACGGTC	0.104
GGACTCGA	-0.0833
CGAAGCTC	-0.0575
TACCACGA	-0.267
CTAACCGA	-0.0425
CTCTCTGA	-0.0662
CATTGTTA	-0.0971
CGCATGGA	-0.0138
CATTATGG	0.0487
CCTTCGCG	0.0192
ATCTTGTC	-0.0534
CATTCCAG	-0.211
GGAACCCA	-0.0641
AGTGTGGC	-0.0199
ATGTGGCC	-0.0147

Sequence	PBM E-score
ATGGCCGG	0.208
CCCGCTCA	0.295
AGAAGGAG	-0.182
AACGCCAA	-0.0257
GAGTGATA	-0.0804
GACTGGCA	-0.0783
CAATTGGG	-0.198
AGCAATCG	-0.18
CTGGGCGC	-0.0614
AGGATTGA	-0.149
AGAACCAA	-0.313
ACCCAATC	-0.12
CGGTTGTC	0.155
GCGACTAA	-0.0162
ATATCTAC	0.0264
GCCTGTAA	-0.0959
ATCTTCCA	-0.158
AGTTATAG	-0.00158
ATTACCTA	0.0568
CCCAGGCC	-0.116
AGCTCGAC	-0.273
CGGGTAGC	-0.0545
ATATAGCC	0.285
CTTGGCAC	-0.106
GCCAGAAC	-0.192

Sequence	PBM E-score
ACGTTTGA	-0.127
CTTGGCCA	-0.271
AGCTTTAC	-0.103
AGGAAGAA	-0.217
CGTTGACA	-0.0392
GAAAGAAC	-0.055
ACGGGGAC	0.241
AGTGAGAG	-0.131
CAGAGACG	0.0627
GCCCAGCA	-0.188
ACCGCGGA	0.358
ACTACCAA	-0.139
AGATAACC	0.0119
CCGTCCCA	0.18
ATGCTCGA	-0.0755
ATGATAAT	0.0585
GGCCTGGA	-0.104
CACAAGTC	-0.0745
GGGCCATA	0.0906
CTTCGCAA	-0.0239
TATAGCGA	-0.00055
ACGGATAC	0.11
CACCAGCC	0.0128
CTTTGACA	-0.135
ACCGGTAG	0.296

Sequence	PBM E-score
AAACATGA	-0.275
TCTCTTAA	-0.186
AAAGTGGC	-0.165
GATGGGTA	-0.205
AGTGTCCC	0.00631
ATCAGGTC	-0.158
GCTCATAA	0.0681
AATAATCG	-0.0389
ACCCCCCA	-0.204
CGACTGAA	0.0545
CTGTACTC	-0.206
ACGCTTCC	-0.128
ACAATGGA	-0.155
CGCTCCGA	0.231
GGTGGCCA	-0.153
GAAAGATA	-0.155
CGTACTAA	-0.00943
AGTGGGCG	-0.102
AATCCGAC	0.257
CAAGCGTG	-0.307
TCTATACA	-0.034
GACTAAAC	-0.0922
GTGGTGGA	0.0383
CCCACAGA	-0.342
CGGATAGA	0.175

Sequence	PBM E-score
ATCAGATA	-0.0877
ATCTTAGG	-0.195
AACCTCGT	-0.0256
AGACTAGG	-0.276
GGTACCTA	-0.0225
CGATTAGA	-0.0242
AAGAGAGG	-0.157
GAAAAGTC	0.122
AGAATGCT	-0.223
TACATGGA	-0.135
AAATGTTG	-0.224
CCAGCCAC	-0.179
ATTATTGA	-0.0373
CCCCGTAA	0.266
ATGAAACG	0.067
GAGCCTAC	-0.105
CACAGGAC	0.0471
CAAGCGCC	0.251
AGGGTTGC	-0.309
AGTAGTTC	0.101
GTCGGGCA	0.278
ACCTAGAG	-0.0461
ACTTTAGG	-0.124
AAATCGAT	-0.346
CTTTGCAA	0.0832

Sequence	PBM E-score
GACTCCGC	0.333
CCTCTCAG	-0.416
GGCGCTAA	0.248
AGACGTTG	-0.225
ACCGGAAC	0.29
ACCCGTTG	0.117
TAGGACCA	-0.145
CGTGCGAC	0.0989
CATCCAAA	-0.0824
AGTGGCAG	-0.156
ATTATATG	-0.0893
GGTTCTCA	-0.0445
CACTTCGG	0.116
CTCAATGA	-0.256
CCCCGTAG	0.176
TAACATTA	-0.0792
AGCAAAGC	-0.121
CCTCACGA	-0.179
TGCGAAAA	0.0823
